The campaign covered roughly 410,000 compounds. About 6,400 (1.6%) were called active. This list was built around the results that the source calls inconclusive (neither active nor inactive); the mix of calls is not that of the screen. Calls come from the whole dose curve; as a rule, active = well fitted inhibition curve with a large enough effect; inconclusive = small, poorly fitted or top-dose-only effect; inactive = no such curve, though single readings can be large or run the other way. No potency is given beside an inconclusive call; the fits are too rough.
biological target: Glucagon-like peptide 1 receptor (Homo sapiens) (UniProt P43220); assay: qHTS of GLP-1 Receptor Inverse Agonists (Inhibition Mode); settings: HEK293 GLP-1R CRE-luciferase, luminescence, 24 h, GLP-1R form is constitutively active; activity change, negative = inhibition: at 38.3 µM (top of the series) unless noted; note: nearly all actives have a fitted effect of over 55% in size
Chain of UniProt P43220 (P43220 whole entry, looked up): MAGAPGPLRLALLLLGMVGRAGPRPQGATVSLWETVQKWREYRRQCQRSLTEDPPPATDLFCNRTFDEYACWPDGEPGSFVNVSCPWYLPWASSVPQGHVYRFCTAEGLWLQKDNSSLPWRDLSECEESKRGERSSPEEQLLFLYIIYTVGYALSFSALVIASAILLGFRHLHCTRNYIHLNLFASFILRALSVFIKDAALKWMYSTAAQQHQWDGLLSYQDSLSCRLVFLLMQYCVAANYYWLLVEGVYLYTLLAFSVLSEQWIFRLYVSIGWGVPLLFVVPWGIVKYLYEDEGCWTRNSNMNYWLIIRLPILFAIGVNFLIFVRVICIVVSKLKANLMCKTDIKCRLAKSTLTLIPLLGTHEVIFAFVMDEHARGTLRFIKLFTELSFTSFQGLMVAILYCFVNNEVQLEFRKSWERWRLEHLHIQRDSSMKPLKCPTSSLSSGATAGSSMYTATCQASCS
How it was run: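 Constitutively active GLP-1R drives a cAMP-responsive luciferase in stably transfected HEK293 cells; test compounds are added after overnight (12 h) attachment and left 24 hr, and signal loss in luminescence marks inhibition.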
% is set by controls: 0 for no effect and ±100 for the full control effect; potency is the fitted concentration of half-maximal effect; tags give direction and shape of the fitted curve.

| SMILES | Potency | activity change, negative = inhibition |
| --- | --- | --- |
| Cc1cccc(NC(=O)CSCC(=O)N(C)CCOc2ccc(Cl)cc2)c1 | inconclusive [inhibitor, partial curve, poor fit] | – |
| OC1(c2ccc(Br)cc2)CCN(Cc2cccc(Br)c2)CC1 | inconclusive [inhibitor, single point] | – |
| Clc1cccc2sc(N3CCN(c4ccccc4)CC3)nc12 | inconclusive [inhibitor, partial curve, poor fit] | – |
| Clc1ccc(OCc2nc(-c3ccncc3)no2)cc1 | – | inactive: 3.09% |
| CC(C)CC(NC(=O)C1CCC(C)CC1)C(=O)Nc1ccc2c(c1)OCCO2 (stereo not drawn) | inconclusive [inhibitor, single point] | – |
| CC(=NO)C1CCC2C3CCC4CC(=NO)CCC4(C)C3C(C)(O)CC12C (stereo not drawn) | inconclusive [inhibitor, single point] | – |
| CCc1ccc(C2C(C(C)=O)=C(C(=O)OC)Nc3nnnn32)cc1 (stereo not drawn) | – | inactive: -19.2% |
| Nc1ccn([C@@H]2O[C@H](C(=O)N(CCC3=CCCCC3)CC3CC3)[C@@H](O)[C@H]2O)c(=O)n1 | – | inactive: 14.4% |
| CCN(CC)CCSc1nnc2c3ccccc3n(CCc3ccccc3)c2n1 | inconclusive [inhibitor, single point] | – |
| CCOC(=O)[C@]12CCC=C1N(Cc1cccc3ccccc13)C(=O)[C@H](CC(=O)NCc1cccs1)C2 | inconclusive [inhibitor, single point] | – |
| CN1CCC(Oc2ccccc2Sc2ccccc2)CC1 | inconclusive [inhibitor, partial curve] | – |
| Cc1ccc(NC(=S)NC(C)CCc2ccccc2)cc1C (stereo not drawn) | inconclusive [inhibitor, partial curve, poor fit] | – |
| CCOc1ccccc1OCCCOc1ccc([N+](=O)[O-])cc1Cl | inconclusive [inhibitor, partial curve, poor fit] | – |
| COc1ccc(OCCCC(=O)N(CCC2=CCCCC2)c2c(N)n(Cc3ccccc3)c(=O)[nH]c2=O)cc1 | inconclusive [inhibitor, partial curve, poor fit] | – |
| COc1ccc(NC(=O)c2cc([N+](=O)[O-])nn2Cc2ccccc2)c(C)c1 | inconclusive [inhibitor, single point] | – |
| CCc1c(C#N)c(SCCC(=O)Nc2cccc(OC)c2)nc2c1C(=O)CC(C)(C)C2 | inconclusive [inhibitor, partial curve, poor fit] | – |
| CCOC(=O)[C@H]1[C@H]2COc3ccc(Br)cc3[C@@H]2N2C(=O)c3ccc(Cl)cc3NC(=O)[C@@]12C | inconclusive [inhibitor, single point] | – |
| Cc1ccc(CS(=O)(=O)CC(C)(O)c2ccc(Cl)cc2)cc1 (stereo not drawn) | inconclusive [inhibitor, single point] | – |
| COc1cc2[nH]c(=O)n(Cc3ccc(C(=O)NCCCN4CCN(C)CC4)cc3)c(=O)c2cc1OC | – | inactive: -3.64% |
| Cc1ccccc1-c1cc(C(=O)N2CCCC2)c2ccccc2n1 | – | inactive: 7.36% |
| COCc1ccc(-c2c(-c3cccc(OC)c3)sc3ccc(OC)cc23)cc1 | inconclusive [inhibitor, partial curve] | – |

| SMILES | Potency | activity change, negative = inhibition |
| --- | --- | --- |
| C[C@@H]1CN([C@@H](C)CO)C(=O)c2cccc(NC(=O)C3CCOCC3)c2O[C@H]1CN(C)S(=O)(=O)c1ccc(Cl)cc1 | – | inactive: 6.4% |
| CCn1c(COc2ccccc2)nc2ccccc21 | inconclusive [inhibitor, single point] | – |
| COCCNC(=O)CSc1nnc(NC(=O)Nc2ccc(C)cc2)s1 | – | inactive: -14% |
| CCc1ccc(-n2c(N3CCN(c4cccc(C)c4C)CC3)nc3ccccc3c2=O)cc1 | – | inactive: -3.13% |
| Cc1ccc(Nc2nc(N)nc(N)c2S(=O)(=O)c2ccccc2)cc1 | inconclusive [inhibitor, partial curve, poor fit] | – |
| CC1(C)c2ccccc2N2CC(=O)N[C@@]21/C=C/C=C/c1ccccc1 | active: 3.55 µM | – |
| COc1ccccc1N1CCN(C(=O)C2CCCN(S(=O)(=O)c3ccc4c(c3)oc(=O)n4C)C2)CC1 (stereo not drawn) | inconclusive [inhibitor, partial curve, poor fit] | – |
| Cc1nn(CCCC(=O)Nc2cc(Oc3ccc(F)cc3)cc([N+](=O)[O-])c2)c(C)c1[N+](=O)[O-] | inconclusive [inhibitor, partial curve, poor fit] | – |
| Cc1cc(C(=O)NC2CCCCC2)c(C)n1-c1ccc(F)cc1 | inconclusive [inhibitor, single point] | – |
| COc1ccccc1N1CCN(S(=O)(=O)CCNC(=O)Cc2ccc(F)cc2)CC1 | inconclusive [inhibitor, partial curve] | – |
| CCOC(=O)c1c(C)oc2ccc(OCc3cc(C(=O)OC)oc3C)cc12 | – | inactive: -17.7% |
| COc1cccc2sc(Nc3nc(C)c(C(C)=O)s3)nc12 | inconclusive [inhibitor, single point] | – |
| Cc1ccc2c(c1)Oc1ccc(NC(=O)CCCl)cc1C(=O)N2 | inconclusive [inhibitor, partial curve] | – |
| Oc1ccc(C[C@H]2CNCCN2CCC23CC4CC(CC(C4)C2)C3)cc1 | inconclusive [inhibitor, single point] | – |
| O=C(N1CCN(c2ccccc2)CC1)C12CC3CC(CC(C3)C1)C2 | inconclusive [inhibitor, single point] | – |
| COc1ccc(OC)c2c(=O)cc(C(=O)O)[nH]c12 | – | inactive: 3% |
| O=C(CC1S/C(=N/N=C/c2cccs2)NC1=O)Nc1ccc(Cl)cc1 (stereo not drawn) | inconclusive [inhibitor, partial curve, poor fit] | – |
| CCCc1ccc2oc(C(=O)N3CCC(COC)C3)c(C)c2c1 (stereo not drawn) | inconclusive [inhibitor, single point] | – |
| CCOC(=O)c1[nH]c2cc3c(cc2c1NC(=O)CN1CCC(C)CC1)OCO3 | inconclusive [inhibitor, single point] | – |
| COc1ccc(CCN2C(=O)CSC2=S)cc1OC | active: 5.62 µM | – |
| O=C(N/N=C/c1cc(Cl)cc([N+](=O)[O-])c1O)C1CC1 | inconclusive [inhibitor, partial curve, poor fit] | – |

| SMILES | Potency | activity change, negative = inhibition |
| --- | --- | --- |
| OCC1(CCCc2ccccc2)CCN(Cc2cnc(N3CCOCC3)s2)CC1 | inconclusive [inhibitor, partial curve, poor fit] | – |
| O=C(Nc1ccccc1)c1nc[nH]c1C(=O)NCc1ccccc1 | inconclusive [inhibitor, single point] | – |
| S=C(NCC1(c2ccccc2)CCCC1)Nc1ccccc1 | inconclusive [inhibitor, full curve, poor fit] | – |
| O=C(OCc1nnc(-c2ccccc2)o1)c1ccc(Cl)cc1 | – | inactive: 2.49% |
| CCOC(=O)CN1C(C(=O)c2ccccc2)=C(OC(=O)c2ccccc2)c2ccccc2S1(=O)=O | inconclusive [inhibitor, partial curve] | – |
| CC(=O)CSc1nc(-c2ccccc2)c(-c2ccccc2)o1 | inconclusive [inhibitor, single point] | – |
| CC(C)(C)[C@H]1COC(=O)[C@@H](Cc2ccc(F)cc2)CC/C=C/C[C@@H](CC(=O)N[C@H](CO)Cc2ccccc2)C(=O)N1 | inconclusive [inhibitor, single point] | – |
| Cc1cc(C)cc(NC(=O)Nc2cccs2)c1 | inconclusive [inhibitor, single point] | – |
| O=C(C1=C[C@@H](C2CCCCC2)C[C@@H](OCCCCO)O1)N1CCN(Cc2ccccc2)CC1 | inconclusive [inhibitor, single point] | – |
| Cc1ccc(NC(=O)C2CCCN(S(=O)(=O)c3ccc(F)cc3)C2)cc1 (stereo not drawn) | inconclusive [inhibitor, partial curve, poor fit] | – |
| COC(=O)C1CCN(C(c2ccccc2Cl)c2sc3nc(-c4ccco4)nn3c2O)CC1 (stereo not drawn) | – | inactive: 2.54% |
| O=C(NCC(c1ccc(F)cc1)N1CCOCC1)c1ccc(C(=O)c2ccccc2)cc1 (stereo not drawn) | inconclusive [inhibitor, single point] | – |
| Cc1ccc(S(=O)(=O)c2nc(Nc3nccs3)sc2Cl)cc1 | inconclusive [inhibitor, single point] | – |
| Cc1cc(C(=O)COc2cccc(-n3cnnn3)c2)c(C)n1-c1ccccc1 | inconclusive [inhibitor, single point] | – |
| O=C(C[n+]1cccc(CNC(=O)c2ccc(OC(F)F)cc2)c1)Nc1cc(C(F)(F)F)ccc1Cl | – | inactive: 1.45% |
| Cc1c(C(=O)Oc2cc(N)n(S(C)(=O)=O)n2)cccc1[N+](=O)[O-] | – | inactive: -0.709% |
| S=C(NCC1CC1)N/N=C/c1ccccc1Cl | inconclusive [inhibitor, single point] | – |
| O=C(NCCOc1ccc(F)cc1)C1CCC(=O)N(Cc2ccc(Cl)cc2)C1 (stereo not drawn) | inconclusive [inhibitor, partial curve, poor fit] | – |
| Cc1ccc2nc(C)cc(N/N=C/c3cccc(O)c3)c2c1 | inconclusive [inhibitor, partial curve, poor fit] | – |
| CCN(CC)CCCNC(=O)c1ccc(CS(=O)(=O)c2ccccc2OC)o1 | inconclusive [inhibitor, single point] | – |
| COc1ccc(C(CNC(=O)c2cc3ccccc3o2)N2CCCCC2)cc1 (stereo not drawn) | inconclusive [inhibitor, full curve, poor fit] | – |

Source: PubChem BioAssay AID624417 (National Center for Advancing Translational Sciences (NCATS), 2012)
